# PubChem BioAssay AID1347120 (National Center for Advancing Translational Sciences (NCATS), 2019)
# Screen size: about 390,000 compounds; about 930 (0.24%) were called active. This list was built around the results that the source calls inconclusive (neither active nor inactive); the mix of calls is not that of the screen. Calls come from the whole dose curve; as a rule, active = well fitted activation curve with a large enough effect; inconclusive = small, poorly fitted or top-dose-only effect; inactive = no such curve, though single readings can be large or run the other way. A potency beside an inconclusive call is a rough fit, not a confirmed value.
# Test: qHTS for Suppressors of FUS Proteinopathy: Primary screen using FUS-linked yeast assay; note: nearly all actives have a fitted effect of over 55% in size;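 for growth rescue (activation): plate controls were DMSO vehicle for no effect and reference control for full effect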
# Details: S. cerevisiae FUS-expressing, OD600, 24 h; Potency: growth rescue; growth rescue (activation): at 76.6 µM (top of the series)
# How it was run: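 Absorbance at 600 nm, taken 24hr after compound addition, measured rescue of FUS-yeast growth at 30C. Induction used 2% galactose with seeding at OD 0.005. Controls: CP55940 from 92uM final, DMSO only.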
# Potency is the fitted concentration of half-maximal effect; tags give direction and shape of the fitted curve.
Structure (SMILES),Potency,growth rescue (activation)
Cn1cccc1CNC(=O)Nc1ccc(Cl)cc1,"inconclusive: 39.8 µM [activator, partial curve, poor fit]",–
CC(C)c1ccc(NC(=O)CSC2=Nc3ccccc3C3=NC(CCC(=O)NC4CCCCC4)C(=O)N23)cc1 (configuration not stated),–,inactive: -6.65%
Cc1cccc(-c2cc3nc4c(c(N5CCCC(O)C5)n3n2)CCC4)c1 (configuration not stated),"inconclusive: 25.1 µM [activator, single point]",–
N#CC(C#N)=C1C=CC=CN1/C(=C\c1ccccc1)C(=O)c1cccs1,–,inactive: 28.4%
Cc1sc2ccccc2[n+]1CC(=O)c1ccccc1,"inconclusive: 50.1 µM [activator, single point]",–
COc1cc2nc3n(c(=O)c2cc1OC)-c1cc2ccccc2cc1C(=O)NC3Cc1ccccc1 (configuration not stated),"inconclusive: 39.8 µM [activator, single point]",–
CC(=O)N1CCN(c2ccc(NCc3ccco3)cc2)CC1,–,inactive: 0.924%
CCOC(=O)Cc1csc(NC(=O)c2cccc(Cl)c2)n1,–,inactive: 9.52%
CCc1nc2ccc(C(=O)N3CCN(c4ccc([N+](=O)[O-])cc4)CC3)cc2nc1CC,"inconclusive: 28.2 µM [activator, single point]",–
COC(=O)[C@]12C[C@H](CC(=O)NCc3cccs3)C(=O)N(Cc3cccc4ccccc34)C1=C[C@H](C(C)(C)C)O[C@@H]2C,active: 10 µM,–
CCc1ccc2oc(C(=O)N(Cc3ccc(N(C)C)cc3)Cc3ccco3)c(C)c2c1,–,inactive: 21.3%
Cc1nc(Cl)sc1C(=O)Nc1cccc(C(F)(F)F)c1,–,inactive: 5.74%
CCOC(=O)c1ccc(CSc2nncn2N)o1,–,inconclusive: 59.1% [activator]
O=C(NC1CCCCC1)C(c1ccncc1)N(Cc1ccccc1)C(=O)c1ccc(-c2ccccc2)[nH]1 (configuration not stated),"inconclusive: 31.6 µM [activator, single point]",–
O=C(OCC(=O)N1CCCC1)c1cncc(Br)c1,–,inconclusive: 53.6% [activator]
CCOc1ccc(NC(=O)CSC2=Nc3ccccc3C3=NC(CC(=O)NCc4cccs4)C(=O)N23)cc1 (configuration not stated),–,inactive: 21.4%
COc1cc(-c2cc(OC)c3c(C)oc(C)c3c(=O)c2)ccc1OC(=O)c1ccc(C)cc1,"inconclusive: 50.1 µM [activator, single point]",–
COc1ccccc1C(=O)NCCSCc1c(F)cccc1Cl,–,inactive: 3.01%
Fc1ccc(/C=C2\CCCC3=C2Nc2ncnn2C3c2ccc(F)cc2)cc1 (configuration not stated),–,inactive: 39.3%
Cc1cc(C)cc(OCCSc2nc3ccc(NC(=O)c4cccs4)cc3s2)c1,"inconclusive: 28.2 µM [activator, single point]",–
COC(=O)COc1ccc(Cl)cc1C1Nc2ccccc2C(=O)N1c1ccc(OC)cc1 (configuration not stated),"inconclusive: 35.5 µM [activator, single point]",–

Structure (SMILES),Potency,growth rescue (activation)
[O-]/C(=C(\C(=S)Nc1cccc2ccccc12)[n+]1ccccc1)c1ccc(OC(F)F)cc1,"inconclusive: 39.8 µM [activator, single point]",–
CC(C)C1C(=O)N(Cc2cn(CC3CCCCC3)nn2)CCS(=O)(=O)N1Cc1ccc(-c2ccc(F)cc2)cc1 (configuration not stated),"inconclusive: 50.1 µM [activator, single point]",–
CC1=C(C(=O)N2CCCCCC2)CC(CC(=O)NCCCCc2ccccc2)C(=O)N1CCC1=CCCCC1 (configuration not stated),"inconclusive: 14.1 µM [activator, partial curve, poor fit]",–
CCc1ccc(Nc2n[n+](-c3ccccc3)c(-c3cc(OC)c(OC)cc3Br)s2)cc1,–,inactive: 44.2%
O=C(Cc1ccccc1)NNC(=O)C1CC=CCC1 (configuration not stated),–,inactive: 18.7%
CC(C)(C)OC(=O)N1CCN(C(=O)c2[nH]cnc2C(=O)N[C@@H](Cc2ccccc2)C(=O)OCc2ccccc2)CC1,"inconclusive: 22.4 µM [activator, single point]",–
CCN(CC)C(=O)c1sc2c(c1C)c(=O)n(-c1ccc(C)c(C)c1)c(=O)n2Cc1cc(=O)n2ccccc2n1,"inconclusive: 31.6 µM [activator, partial curve, poor fit]",–
Cc1ccccc1-n1c(SCC(=O)Nc2ccccc2Cl)nc2n[nH]c(C)c2c1=N,–,inactive: 17.7%
O=c1[nH]c2cc(Cl)cc(Cl)c2[nH]c1=O,"inconclusive: 7.08 µM [activator, partial curve, poor fit]",–
COc1ccc(-c2nc3scc(CCNS(=O)(=O)c4ccc(Oc5ccccc5)cc4)n3n2)cc1OC,–,inactive: 23.1%
Cc1ccsc1CCN1C(=O)N(c2ccccc2)C(=O)C1CC(=O)Nc1ccc(Cl)cc1 (configuration not stated),"inconclusive: 44.7 µM [activator, partial curve, poor fit]",–
CCN(CC)C(=O)c1sc2c(c1C)c(=O)n(Cc1ccccc1)c(=O)n2Cc1ccccc1C,"inconclusive: 35.5 µM [activator, single point]",–
COC(=O)[C@@]1(Cc2ccc(F)cc2)[C@H]2c3cc(C(=O)N(C)C)n(CCc4ccc(OC)c(Br)c4)c3C[C@H]2CN1C(=O)c1ccccc1,"inconclusive: 44.7 µM [activator, single point]",–
CC1CC(C)(C)CC2(C1)NC(=O)N(CC(=O)N1CCN(S(=O)(=O)c3cccs3)CC1)C2=O (configuration not stated),"inconclusive: 17.8 µM [activator, partial curve]",–
Cc1ccc(C)c(NC(=S)/C(=C(\[O-])c2ccc(OC(F)F)cc2)[n+]2ccccc2)c1,"inconclusive: 7.08 µM [activator, partial curve, poor fit]",–
C[C@H](NC(=O)c1nc[nH]c1C(=O)NCc1ccccc1)C(=O)OCc1ccccc1,"inconclusive: 5.01 µM [activator, full curve]",–
CCCCn1nnnc1C1(C)CCC(=O)N1Cc1cccs1 (configuration not stated),"inconclusive: 8.91 µM [activator, single point]",–
CC1(C)CC(=O)C=C(N2CCNCC2)C1,–,inconclusive: 57% [activator]
O=c1c2ccccc2nc(/C=C/c2cccc3ccccc23)n1-c1ccc(F)cc1F,active: 31.6 µM,–
COCCCN1C(=O)C(CC(=O)NC2CCCCC2)CC(C(=O)N(C)C)=C1C (configuration not stated),–,inactive: -5.06%
C#CCOCCOCCOCCNc1nc(N2CCN(C(=O)CCCCCCCCCCNC(=O)Cn3cc(C[C@@H](C)O)nn3)CC2)nc(N2CCN(C(=O)CCCCCCCCCCNC(=O)[C@@H]([C@H](C)CC)n3cc(CCCCCN)nn3)CC2)n1,"inconclusive: 12.6 µM [activator, partial curve, poor fit]",–
